Source: article PMC4336329 (PLoS ONE, 2015)
Hit rate of the full screen: of about 310,000 compounds, about 2,200 (0.71%) showed an effect of 50% or more. The effect is printed as a negative number. The list shows a part of the results.

target: human ether-à-go-go-related gene (hERG) potassium channel (human, UniProt Q12809); test: primary screen, population patch clamp on CHO cells stably expressing hERG
Sequence (Q12809 whole entry, looked up): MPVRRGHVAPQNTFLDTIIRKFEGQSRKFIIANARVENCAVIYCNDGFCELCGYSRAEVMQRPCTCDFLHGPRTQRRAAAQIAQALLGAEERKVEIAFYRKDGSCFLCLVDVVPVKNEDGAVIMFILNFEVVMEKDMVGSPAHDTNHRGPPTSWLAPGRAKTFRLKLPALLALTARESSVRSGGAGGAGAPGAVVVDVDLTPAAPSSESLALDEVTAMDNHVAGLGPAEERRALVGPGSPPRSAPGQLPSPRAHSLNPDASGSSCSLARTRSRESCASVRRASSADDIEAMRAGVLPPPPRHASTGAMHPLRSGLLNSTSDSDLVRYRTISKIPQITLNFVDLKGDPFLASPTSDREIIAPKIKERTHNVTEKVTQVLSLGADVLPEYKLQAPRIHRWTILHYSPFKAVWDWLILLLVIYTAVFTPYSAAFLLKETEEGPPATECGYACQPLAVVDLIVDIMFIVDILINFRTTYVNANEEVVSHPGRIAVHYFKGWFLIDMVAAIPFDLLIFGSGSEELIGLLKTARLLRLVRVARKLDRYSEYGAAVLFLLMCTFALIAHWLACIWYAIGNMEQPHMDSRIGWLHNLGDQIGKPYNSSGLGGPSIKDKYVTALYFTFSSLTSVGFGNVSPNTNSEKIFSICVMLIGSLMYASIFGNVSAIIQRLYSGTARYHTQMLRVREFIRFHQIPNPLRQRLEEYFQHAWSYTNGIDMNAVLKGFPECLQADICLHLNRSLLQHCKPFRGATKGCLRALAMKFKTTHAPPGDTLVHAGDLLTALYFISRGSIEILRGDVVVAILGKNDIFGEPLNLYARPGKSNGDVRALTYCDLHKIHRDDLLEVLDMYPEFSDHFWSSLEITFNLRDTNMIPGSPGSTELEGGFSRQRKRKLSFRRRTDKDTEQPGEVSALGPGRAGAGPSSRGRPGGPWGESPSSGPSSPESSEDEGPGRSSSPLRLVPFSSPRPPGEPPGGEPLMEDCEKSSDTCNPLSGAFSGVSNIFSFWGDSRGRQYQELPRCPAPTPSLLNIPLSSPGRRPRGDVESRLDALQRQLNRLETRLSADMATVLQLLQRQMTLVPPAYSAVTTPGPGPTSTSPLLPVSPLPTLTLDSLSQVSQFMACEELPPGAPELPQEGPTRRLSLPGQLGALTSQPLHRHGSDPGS

Compared with `CCOc1cc(-c2cc(-c3ccc(OC)cc3)nc(N)c2C#N)ccc1O`, `COc1ccc(S(=O)Cc2ccc(C(=O)NCc3cccc(OC)c3)o2)cc1` (stereo not drawn) is higher in “hERG current change (%, negative = inhibition) at 1uM” value: -1.14% for the first, 9.34% for the second.

First: CCOC(=O)c1c(C)[nH]c(C)c1C(=O)CSc1nc2ccccc2[nH]1
Second: NC(=O)Cc1ccc2c(c1)[nH]c1ccccc12
The “hERG current change (%, negative = inhibition) at 1uM” value of the first is higher: 13.8% for the first, 12.4% for the second.

First: Cc1[nH]nc2c1C1(CCOC1C)C(C#N)=C(N)O2 (stereo not drawn)
Second: Cn1c2c(c(=O)n(C)c1=O)C(c1ccc(Cl)cc1)C(C#N)=C(N)O2 (stereo not drawn)
The “hERG current change (%, negative = inhibition) at 1uM” value of the first is higher: 14.9% for the first, -2.65% for the second.

Compared with `c1ccc(-c2n[nH]c3ccccc23)cc1`, `O=c1cc(Cl)c(-c2ccccc2)n[nH]1` is lower in “hERG current change (%, negative = inhibition) at 1uM” value: 11.4% for the first, 10.3% for the second.

Compared with `COc1ccc(OC)c(NC(=O)C(=O)c2cn(CC(=O)N3CCCC3)c3ccccc23)c1`, `N#C/C(=C/c1cn(CC(=O)O)c2ccccc12)C(=O)NCc1ccccc1` is lower in “hERG current change (%, negative = inhibition) at 1uM” value: 15.5% for the first, 12% for the second.

First: Cc1cc(NC(=O)CN2CCN(c3ccc(O)cc3)CC2)no1
Second: O=C(CN1CCN(CC(=O)Nc2cccc(F)c2)CC1)Nc1ccc(-c2ccccc2)cc1
The “hERG current change (%, negative = inhibition) at 1uM” value of the first is lower: 1.35% for the first, 13.6% for the second.

Compared with `CCSc1nnc(N(CCC(=O)O)CCC(=O)O)s1`, `C/C(N)=C(/C#N)C(=O)CSc1nnc(Nc2cccc(C)c2)s1` is higher in “hERG current change (%, negative = inhibition) at 1uM” value: 3.87% for the first, 11.5% for the second.

First: Cc1ccc(C)c(S(=O)(=O)/N=C2\C=C(NS(=O)(=O)c3ccccc3)C(=O)c3ccccc32)c1
Second: CC(C)N1C(=O)/C(=C\c2nc3ccccc3c(=O)n2-c2ccccc2)c2ccccc21
The “hERG current change (%, negative = inhibition) at 1uM” value of the first is lower: 5.4% for the first, 10.2% for the second.

Going from `CCNC(=O)CSc1nnc(CN2CCCCCC2=O)n1-c1ccccn1` to `Cc1ccc(C)c(NC(=O)COc2coc(CN3CCc4ccccc43)cc2=O)c1`, the “hERG current change (%, negative = inhibition) at 1uM” value falls from 17.1% to 14.3%.

Going from `Cl.O=c1[nH]oc2c1CCNC2` to `CCCCCc1nc2sc3c(c2c(=O)n1N)CCC3`, the “hERG current change (%, negative = inhibition) at 1uM” value falls from 11.8% to 11.3%.

First: Cc1c(C)c2c(OCC(=O)NCCCO)cc3c(c2oc1=O)CCC(C)(C)O3
Second: COC(=O)c1[nH]c2ccc(C)cc2c1NC(=O)CN1CCC(C)CC1
The “hERG current change (%, negative = inhibition) at 1uM” value of the first is lower: 13.9% for the first, 18.2% for the second.

First: COc1ccc(Br)cc1CSC(=N)N.Cl
Second: COc1ccc(CC(=O)NCc2ccccc2)cc1
The “hERG current change (%, negative = inhibition) at 1uM” value of the first is lower: 7.17% for the first, 11.8% for the second.

Going from `CCOc1ccc(CCNC(=O)C2CCN(S(=O)(=O)N3CCC(C)CC3)CC2)cc1OCC` to `O=C(NC1CCCCCC1)C1CCN(C(=O)Cc2ccccc2)CC1`, the “hERG current change (%, negative = inhibition) at 1uM” value rises from 9.47% to 12.6%.

First: COn1c2c(c3c4nonc4ccc31)CCCC2
Second: Cc1ccc(Nc2c3c(nc4ncnn24)CCC3)cc1
The “hERG current change (%, negative = inhibition) at 1uM” value of the first is lower: -7.45% for the first, 6.04% for the second.

First: OCCN1CCN(c2nc(-c3ccccc3)c3cc(Cl)ccc3n2)CC1
Second: CCCCn1c(CN2CCN(C)CC2)nc2ccccc21
The “hERG current change (%, negative = inhibition) at 1uM” value of the first is higher: 9.67% for the first, -31.4% for the second.

Compared with `CC(=O)Nc1nc2ccccc2n1Cc1ccccc1Cl`, `CCN(CC)CCn1c(NC(=O)c2ccccc2O)nc2ccccc21` is lower in “hERG current change (%, negative = inhibition) at 1uM” value: -1.44% for the first, -17.9% for the second.

Going from `O=C(NNC(=O)c1ccccc1F)c1cccc(Cl)c1` to `O=C(c1ccccc1F)N(Cc1nc2ccccc2c(=O)[nH]1)C1CCCC1`, the “hERG current change (%, negative = inhibition) at 1uM” value falls from 11.5% to 3.13%.

Compared with `Cc1cc(C)c(C)c(S(=O)(=O)N2CCCN(C)CC2)c1C`, `NC(=O)Nc1ccc(C(=O)N2CCN(S(=O)(=O)Cc3ccccc3)CC2)cc1` is lower in “hERG current change (%, negative = inhibition) at 1uM” value: 12.8% for the first, 11.9% for the second.

Compared with `CN1CCc2nc3sc(C#N)c(N)c3c(-c3cccs3)c2C1`, `CN(C)N1C(N)=C(C#N)C(c2ccccc2Cl)C2=C1CCCC2=O` (stereo not drawn) is higher in “hERG current change (%, negative = inhibition) at 1uM” value: -41% for the first, 7.92% for the second.

Compared with `O=C(/C=C/c1ccccc1)NNC(=O)C1CC1`, `O=C(CCSc1ccccc1)NC1CCCC1` is higher in “hERG current change (%, negative = inhibition) at 1uM” value: -1.98% for the first, -0.156% for the second.

First: NC(=O)c1cc([N+](=O)[O-])ccc1NCC1CCCCC1
Second: CC1CCCC(NC(=O)Cn2cc([N+](=O)[O-])ccc2=O)C1C (stereo not drawn)
The “hERG current change (%, negative = inhibition) at 1uM” value of the first is higher: 5.53% for the first, 4.41% for the second.

Compared with `CCC(OC(=O)c1cccs1)C(=O)NCc1ccc2c(c1)OCO2` (stereo not drawn), `CN(C)C(CNC(=O)c1cccs1)c1ccco1` (stereo not drawn) is lower in “hERG current change (%, negative = inhibition) at 1uM” value: 11% for the first, 10.3% for the second.

First: CC(O)C(O)C(O)C(O)/C=N/NC(=O)c1ccccc1 (stereo not drawn)
Second: C=C(C)CNC(=S)N/N=C/c1ccc(NC(C)=O)cc1
The “hERG current change (%, negative = inhibition) at 1uM” value of the first is higher: 11.3% for the first, 11% for the second.

Compared with `COc1ccc(-n2nc(C(=O)NCC(=O)N(C)Cc3ccccc3)c3ccccc3c2=O)cc1`, `O=C(COc1ccc(Br)cc1)N(Cc1ccccc1)c1ccccn1` is lower in “hERG current change (%, negative = inhibition) at 1uM” value: 14% for the first, 11.4% for the second.

First: CCOC(=O)N1CCC(N2C(=O)c3ccccc3C2Nc2ccc(S(=O)(=O)N(CC)CC)cc2)CC1 (stereo not drawn)
Second: COc1ccc2cc(CCNS(=O)(=O)c3ccc(NC(C)=O)cc3)c(=O)[nH]c2c1
The “hERG current change (%, negative = inhibition) at 1uM” value of the first is lower: -3.48% for the first, 7.61% for the second.

Compared with `Cc1noc(C)c1C(=O)Nc1nnc(CC(C)C)s1`, `CC(C)Nc1nc(NC(C)C)nc(SCCOC(=O)Nc2ccc(Cl)cc2Cl)n1` is lower in “hERG current change (%, negative = inhibition) at 1uM” value: 8.61% for the first, 6.83% for the second.

First: CCCN1Cc2cccc(C(N)=O)c2C1=O
Second: COCCN1Cc2cccc(C(=O)NCc3cccs3)c2C1=O
The “hERG current change (%, negative = inhibition) at 1uM” value of the first is lower: 3.15% for the first, 11.3% for the second.

First: COc1ccc(OCC(O)CNC(=O)Nc2ccc(F)cc2)cc1 (stereo not drawn)
Second: COc1ccc(OCCCCOc2ccccc2Cl)cc1
The “hERG current change (%, negative = inhibition) at 1uM” value of the first is higher: 14.9% for the first, 12.1% for the second.

Compared with `COc1cccc(C2=NOC(C(=O)NCc3cccnc3)C2)c1` (stereo not drawn), `CCn1c(=O)c(C(=O)CN2c3ccccc3CC2C)c(N)n(Cc2ccccc2)c1=O` (stereo not drawn) is lower in “hERG current change (%, negative = inhibition) at 1uM” value: 21.8% for the first, 5.48% for the second.

Going from `Cc1ccccc1C(=O)Nc1ccc(-c2nc3ccc(C(=O)c4ccccc4)cc3[nH]2)cc1` to `CC(=O)c1ccccc1NC(=O)COC(=O)/C(=C/c1ccccc1)n1nnnc1C`, the “hERG current change (%, negative = inhibition) at 1uM” value falls from 16.3% to 9.26%.
